Results are given in words; binding and its absence hold for the method and conditions named. Binding seen in cells or lysates may run through a third protein. Some results given as binding are weak or reduced against the parent protein; the word gives no strength. One block for each substance: values may come before it.
Experiments:
[1] = biological target: Myc-CDC20 171-499 fragment (containing WD40 domain) (UniProt Q12834); assay: co-IP; HEK293T whole-cell lysates in Nonidet P-40 buffer; 4-6 µg antibody, 4°C 8-12 h, Protein A/G-agarose beads; ectopic and/or endogenous proteins; for APC11 with p65 also in NC, CDC20sh and CDH1sh cells
[2] = biological target: endogenous CDC20 (human (endogenous in HEK293T and hBMSCs)) (UniProt Q12834); assay: as above
Myc-tagged CDC20 = Myc-tagged CDC20 (UniProt Q12834); assay: as above
Flag-tagged p65 = Flag-tagged p65 (UniProt Q04206); assay: as above
GST-p65 = GST-p65 (UniProt Q04206); assay: pull-down; GST fusion protein on glutathione sepharose incubated with HEK293T whole-cell lysate; washes with 0.1 mM EDTA, 0.5% Nonidet P-40, 20 mM Tris pH 7.4, 300 mM NaCl; immunoblot with anti-CDC20 or anti-p65; only the target purified
[3] = biological target: Myc-CDC20 1-170 fragment (lacking WD40 domain) (UniProt Q12834); assay: co-IP; HEK293T whole-cell lysates in Nonidet P-40 buffer; 4-6 µg antibody, 4°C 8-12 h, Protein A/G-agarose beads; ectopic and/or endogenous proteins; for APC11 with p65 also in NC, CDC20sh and CDH1sh cells
APC2 (human) = APC2 (human) (UniProt Q9UJX6); assay: as above
[4] = biological target: endogenous APC11 (human (endogenous in HEK293T)) (UniProt Q9NYG5); assay: as above
[5] = biological target: endogenous CDC20 (human (endogenous in HEK293T and hBMSCs)) (UniProt Q12834); assay: co-IP; hBMSC lysates, endogenous proteins; Nonidet P-40 buffer, Protein A/G-agarose beads
GST-CDC20 = GST-CDC20 (UniProt Q12834); assay: pull-down; GST fusion protein on glutathione sepharose incubated with HEK293T whole-cell lysate; washes with 0.1 mM EDTA, 0.5% Nonidet P-40, 20 mM Tris pH 7.4, 300 mM NaCl; immunoblot with anti-CDC20 or anti-p65; only the target purified
[6] = biological target: endogenous CDC20 in mouse BMSCs (mouse (endogenous in mBMSCs)) (UniProt Q9JJ66); assay: co-IP; mouse BMSC lysates, endogenous proteins; Nonidet P-40 buffer, Protein A/G-agarose beads

The chains behind the UniProt entries cited, without tags or fusion partners. Where a name states a change or a piece, a line headed by the entry shows the natural chain unless it says otherwise. Residues count along the entry.
UniProt Q12834: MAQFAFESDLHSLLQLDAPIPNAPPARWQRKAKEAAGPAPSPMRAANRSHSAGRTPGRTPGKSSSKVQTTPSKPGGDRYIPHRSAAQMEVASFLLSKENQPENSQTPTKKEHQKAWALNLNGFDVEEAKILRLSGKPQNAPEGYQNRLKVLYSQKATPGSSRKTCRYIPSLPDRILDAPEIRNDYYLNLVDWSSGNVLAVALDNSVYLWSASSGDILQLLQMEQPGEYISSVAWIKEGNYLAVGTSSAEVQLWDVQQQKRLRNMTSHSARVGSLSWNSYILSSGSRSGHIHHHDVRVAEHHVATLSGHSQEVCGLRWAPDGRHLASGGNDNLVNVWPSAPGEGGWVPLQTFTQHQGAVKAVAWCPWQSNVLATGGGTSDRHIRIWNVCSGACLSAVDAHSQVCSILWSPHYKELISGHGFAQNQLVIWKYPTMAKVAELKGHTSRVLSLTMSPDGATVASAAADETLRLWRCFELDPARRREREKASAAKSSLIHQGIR
Myc-CDC20 1-170 fragment (lacking WD40 domain): residues 1-170 of Q12834
Myc-CDC20 171-499 fragment (containing WD40 domain): residues 171-499 of Q12834
UniProt Q04206: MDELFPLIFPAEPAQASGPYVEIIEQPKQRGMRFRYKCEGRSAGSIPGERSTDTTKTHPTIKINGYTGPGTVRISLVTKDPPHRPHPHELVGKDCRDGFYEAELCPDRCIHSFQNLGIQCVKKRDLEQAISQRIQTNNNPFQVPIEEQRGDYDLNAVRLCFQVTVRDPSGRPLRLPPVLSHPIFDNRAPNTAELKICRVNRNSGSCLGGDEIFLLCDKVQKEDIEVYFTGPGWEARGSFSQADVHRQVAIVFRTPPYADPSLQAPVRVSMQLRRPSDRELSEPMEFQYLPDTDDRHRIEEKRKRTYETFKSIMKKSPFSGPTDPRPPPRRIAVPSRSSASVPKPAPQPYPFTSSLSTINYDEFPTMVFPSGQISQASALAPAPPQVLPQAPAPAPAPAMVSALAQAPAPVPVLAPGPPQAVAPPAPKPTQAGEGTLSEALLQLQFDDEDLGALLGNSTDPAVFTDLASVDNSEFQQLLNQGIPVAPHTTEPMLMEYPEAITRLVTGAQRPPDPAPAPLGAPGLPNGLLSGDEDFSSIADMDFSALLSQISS
UniProt Q9UJX6: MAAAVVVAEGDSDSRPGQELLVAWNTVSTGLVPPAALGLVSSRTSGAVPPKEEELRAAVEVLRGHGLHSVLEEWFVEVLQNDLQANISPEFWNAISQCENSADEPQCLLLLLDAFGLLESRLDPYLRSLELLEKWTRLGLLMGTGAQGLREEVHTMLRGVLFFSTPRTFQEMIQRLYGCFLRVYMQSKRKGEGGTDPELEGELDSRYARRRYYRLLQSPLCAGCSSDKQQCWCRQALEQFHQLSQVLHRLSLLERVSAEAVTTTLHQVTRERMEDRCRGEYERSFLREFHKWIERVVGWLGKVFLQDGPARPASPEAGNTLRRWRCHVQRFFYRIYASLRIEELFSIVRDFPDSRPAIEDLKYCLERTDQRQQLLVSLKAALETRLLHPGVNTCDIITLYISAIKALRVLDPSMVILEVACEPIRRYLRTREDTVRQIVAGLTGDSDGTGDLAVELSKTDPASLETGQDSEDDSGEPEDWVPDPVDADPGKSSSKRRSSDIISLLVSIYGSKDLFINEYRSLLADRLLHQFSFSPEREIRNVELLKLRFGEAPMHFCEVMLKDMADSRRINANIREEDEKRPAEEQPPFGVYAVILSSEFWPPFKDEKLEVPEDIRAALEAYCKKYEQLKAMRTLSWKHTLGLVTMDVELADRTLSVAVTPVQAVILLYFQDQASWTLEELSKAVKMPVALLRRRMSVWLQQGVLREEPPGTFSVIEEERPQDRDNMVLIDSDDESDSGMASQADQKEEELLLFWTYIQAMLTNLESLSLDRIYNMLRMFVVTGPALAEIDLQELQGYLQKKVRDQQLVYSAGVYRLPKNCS
UniProt Q9NYG5: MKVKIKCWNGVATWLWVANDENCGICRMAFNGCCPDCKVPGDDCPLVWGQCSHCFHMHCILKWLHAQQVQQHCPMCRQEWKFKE
UniProt Q9JJ66: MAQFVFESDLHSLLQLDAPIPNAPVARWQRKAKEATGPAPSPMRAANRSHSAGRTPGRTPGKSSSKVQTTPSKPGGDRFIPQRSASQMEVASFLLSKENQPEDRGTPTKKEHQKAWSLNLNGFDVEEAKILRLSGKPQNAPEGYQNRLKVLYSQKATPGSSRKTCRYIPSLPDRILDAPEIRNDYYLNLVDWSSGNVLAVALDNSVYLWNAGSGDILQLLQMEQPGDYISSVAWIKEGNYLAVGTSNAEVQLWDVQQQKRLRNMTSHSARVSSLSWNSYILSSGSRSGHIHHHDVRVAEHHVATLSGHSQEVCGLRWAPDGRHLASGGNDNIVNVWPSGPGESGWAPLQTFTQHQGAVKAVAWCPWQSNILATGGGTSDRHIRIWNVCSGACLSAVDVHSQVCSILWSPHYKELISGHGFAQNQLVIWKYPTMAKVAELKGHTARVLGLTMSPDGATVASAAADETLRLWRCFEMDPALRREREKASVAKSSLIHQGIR
UniProt Q04207: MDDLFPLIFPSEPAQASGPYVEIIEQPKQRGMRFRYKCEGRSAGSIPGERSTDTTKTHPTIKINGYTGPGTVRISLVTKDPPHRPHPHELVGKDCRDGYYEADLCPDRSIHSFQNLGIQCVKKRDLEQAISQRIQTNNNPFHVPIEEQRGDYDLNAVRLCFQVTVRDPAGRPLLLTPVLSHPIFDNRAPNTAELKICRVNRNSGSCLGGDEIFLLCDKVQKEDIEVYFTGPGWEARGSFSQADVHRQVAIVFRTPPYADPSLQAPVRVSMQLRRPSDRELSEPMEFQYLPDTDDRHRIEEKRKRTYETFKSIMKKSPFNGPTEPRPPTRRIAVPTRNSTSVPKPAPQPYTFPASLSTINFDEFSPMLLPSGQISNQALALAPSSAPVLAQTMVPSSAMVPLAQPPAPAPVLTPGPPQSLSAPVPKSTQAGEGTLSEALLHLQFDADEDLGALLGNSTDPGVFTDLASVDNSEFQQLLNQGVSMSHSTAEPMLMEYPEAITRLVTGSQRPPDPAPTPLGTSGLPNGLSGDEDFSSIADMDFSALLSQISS

Substance: Flag-p65 1-310 fragment (containing RHD domain) (from UniProt Q04206 1-310) (domain or fragment)
binding [1]: binds
binding [2]: binds

Substance: Flag-tagged p65 (from UniProt Q04206 1-551)
binding (Myc-tagged CDC20): binds

Substance: endogenous CDC20 (from UniProt Q12834 1-499)
binding (Flag-tagged p65): binds
binding (GST-p65): binds

Substance: endogenous p65 in mouse BMSCs (from UniProt Q04207 1-549)
binding [6]: binds

The remaining lines, values ahead:

binding [2]: no binding
Substance: Flag-p65 311-551 fragment (lacking RHD domain) (from UniProt Q04206 311-551) (domain or fragment)

binding [3]: no binding
binding (APC2 (human)): no binding
binding [1]: binds
binding [4]: binds
binding [2]: binds
binding (Myc-tagged CDC20): binds
binding [5]: binds
binding (GST-CDC20): binds
Substance: endogenous p65 (from UniProt Q04206 1-551)
